This passage reports self-cleavage results from the RNAGym collection of RNA variant scans (doi:10.7554/elife.90254).

Read counts are not given, so values of variants with three or more changes are uncertain.

B1: LINE1-mini (parent)
chain: GGCAGAGCUCAACACAGCGUGGCAAAGUGGCUGUGGCUAGACUGCC

Variants of B1 are the subject of the data set. The data set can be described thus: self-cleavage, relative activity (ratio to wild type); higher = more cleavage; in vitro, sequencing; the parent is a self-cleaving ribozyme.
Regarding UGCAGAGCUCAACAAAUCGUGGCAAAGUGGCUGUGGCUAGACUGCC, the self-cleavage is 0.01.

For the variant UGCAGAGCUAGACACAGCGUGGCAAAGUGGCGGUGGCUAGACUGCC, the self-cleavage came to 0.02.

Consider UGCAGAGCUCAAAACAACGUGGCAAAGUGGCUGUGGGUAGACUCCC, for which the self-cleavage stood at 0.06.

In the case of UGCAGAGCUCAAUUCAGCCUGGCAAAGUGGCUGUGGCUAGAGUGCC, the self-cleavage was 0.04.

UGCAGAGUUCAACACAGCUUGGCAACGUGGCUGUGGCUAGACUGCC: the self-cleavage worked out at 0.01.

As for UGCAGAGCUCAACAAAGCGUGGCAAAGUGGCUGCGGCUAGACUGCC, the self-cleavage is 0.09.

Regarding UGCAGAGCUAAACACAGCGUGGCAAAGUGGCUGUGGCUAGACUACC, the self-cleavage stood at 0.01.

On to UGCAGAGCUUAACACAGUGUGGCAAAGUGGCUUUGCCUAGACUGCC, for which the self-cleavage stood at 0.01.

On to UGCAGAGCUCAAUACAGCCUGGCAAAGUGGCUGUGGCUAGACUGCC, for which the self-cleavage amounted to 0.03.

UGCAGAGCUCAACAUAGCGUGGUGAAGUGGCUGUGGCUUGACUGCC: the self-cleavage is 0.04.

On to UGCAGAGCUUAACACAGCGUGGCACAGUGGCUGUGGCUAGACUGCC, for which the self-cleavage is 0.02.

With UGCAGAGCUCAAAACAGCGUGGCACAGUGGCUGUGGCUAGACUGCC, the self-cleavage turned out to be 0.02.

On to UGCAGAGCUCAACACAGUGUGGCCAAGUGGCUGUGACUAGACUGCC, for which the self-cleavage turned out to be 0.03.

For the variant UGCAGAGCUCAAAACAGCGUGGCAAGGUGGCUGUGGGUAGACUGCC, the self-cleavage is 0.03.

As to UGCAGAGCUUAACACACCGUGGCAAAGUGGCUGAGGCUAGACUGCC, the self-cleavage came to 0.11.

For the variant UGCAGAGCUCAACAUAGCAUGGCAAAGCGGCUGUGGCUAAACUGCC, the self-cleavage was 0.01.

Turning to UGCAGAGCUCAACAGAGCGUGGCAAAGUGGCUGUGGCUAGAUUGCC, the self-cleavage is 0.02.

Turning to UGCAGAGCUCAAAACAGCGUAGCAAAGUGGCUGUGGCUAGACUGAC, the self-cleavage was 0.1.

For the variant UGCAGAGCUAAACAUGGCGUGGCAAGGUGGCUGUGGCUAGACUGCC, the self-cleavage is 0.01.

Consider UGCAGAGCUCAAAACAGCGUGGCAAAGUGGCUGUUGCUAGACUGCC, for which the self-cleavage was determined as 0.66.

In the case of UGCAGAGCUCAAAACAGCGUGGCAAAGUGGCUGUCGCUAGACUGCC, the self-cleavage is 0.

On to UGCAGAGCUCAACAAGGCGUGGCAAAGUGGCUGUGGCUGGACAGCC, for which the self-cleavage was 0.11.

For UGCAGAGCUCAAAACACCGUGGCAAAGUGGCUGUGGCUACACCGCC, the self-cleavage was found to be 0.01.

Take UGCAGAGCUUAACACCGCGUGGCAAAGUGGCUGUGGCUAUACUGCC: the self-cleavage was found to be 0.01.

UGCAGAGCUCAACAUAGCGUGGCAAAUUGGCUGUGGCCAGACUGCC: the self-cleavage stood at 0.46.

With UGCAGAGCUCAAGAUGGCGUGGCAAAGUGGCUGUGCCUAGACUGCC, the self-cleavage stood at 0.07.

Take UGCAGAGCUCAACAUAACGUGGCAAAGUGGCUGUGGCUAGACUGCC: the self-cleavage was 0.04.

With UGCAGAGCUAAACACAGCGUGGCAAAGUGGCUGUGGAUAGACUGCC, the self-cleavage was 0.04.

As to UGCAGAGCUGAACACAGCGUGGCAAAGUGGCUGUGACUAUACUGCC, the self-cleavage was found to be 0.01.

Take UGCAGAGCUUAACACAGCGUGGCAAAGUGCCUGCGGCUAUACUGCC: the self-cleavage is 0.01.

As for UGCAGAGCUGAACACAGCGCGGCAUAGUGGCUGCGGCUAGAAUGCC, the self-cleavage is 0.

Turning to UGCAGAGCUGAUCACAGCGUGGCAAAGUGGCUGUGGCUAGACUGCA, the self-cleavage turned out to be 0.02.

In the case of UGCAGAGCUCAACACAGAGUGGCAAAGUGGCUGUGACUAGACUGCC, the self-cleavage turned out to be 0.02.

Consider UGCAGAGCUCAACAGAGCGUGGCAAAGUGGCUGAGACUAGACUGCC, for which the self-cleavage was found to be 0.

UGCAGAGCUAAACACAGCGUGGCAAAGUUGCUGUGGCUAUACUGCC: the self-cleavage was 0.01.

For the variant UGCAGAGCUCAAGUCAGCGUGGCCAAGUGGCUGUGGCUAGACUGCC, the self-cleavage came out at 0.06.

Turning to UGCAGAGCUAAACACAGCGUGGCAAAGUGGCUGUGGCUAGACUGGC, the self-cleavage was determined as 0.

For UGCAGAGCUCAAAACAGCGUUGCAAAGUGGCUGGGGCUAGACUGCC, the self-cleavage amounted to 0.02.

Take UGCAGAGCUCAACAUAGCGUGGCAAUAUGGCUGUGGCUAUACUGCC: the self-cleavage was 0.02.

With UGCAGAGCUCAAGACAGCGUGACAAAGUGGCUGUGGCUAGACUGCC, the self-cleavage stood at 0.1.

As for UGCAGAGCUCAACACAGAGUGUCAAAGUGGCUUUGGCUGGACUGCC, the self-cleavage came out at 0.06.

On to UGCAGAGCUCAACAGAGUGUGGCAAAGUUGCUGUGGCUAGACUGCC, for which the self-cleavage was determined as 0.01.

Regarding UGCAGAGCUCAACACAGGGUGACAUAGUGGCUGUGGCUAGACUGCC, the self-cleavage is 0.55.

Turning to UGCAGAGCUUAACAAAGAGUGGCAAAGUGGCUGUGGCUAGACUGCC, the self-cleavage worked out at 0.01.

In the case of UGCAGAGCUUAACACAGCGUGGCCAAGUGGCUGUGGCUAGACUGCC, the self-cleavage worked out at 0.13.

For UGCAGAGCUCAAAACAGCGUGGCACAGUGGCUGUGGCUAGCCUGCC, the self-cleavage was determined as 0.03.

As to UGCAGAGCUCAACAGAGCGUGGCAAAGAGGUUGUGGCUAGACUGCC, the self-cleavage was found to be 0.

For the variant UGCAGAGCUCAACAGAGCGUGGCAGAGUGGCUGUGGCUAGACUGCC, the self-cleavage was determined as 0.05.

With UGCAGAGCUCAACACAGAGUGGCAAAGUGACUGUGGCUAGACUGAC, the self-cleavage stood at 0.09.

Regarding UGCAGAGCUCAACAAAGCAUGGCAAAGUGGCUCUGGCGAGACUGAC, the self-cleavage came out at 0.02.

Regarding UGCAGAGCUAAACACAGUGUGGCAAAGUGGCUGUGGCUAGACUGCC, the self-cleavage is 0.01.

In the case of UGCAGAGCUGGACACAGCGUGGUAAAGUGACUGUGGUUAGACUGCC, the self-cleavage turned out to be 0.

Consider UGCAGAGCUUAAAACAGUGUGUCAAAGUGGCUGUGGCUAGACUGCC, for which the self-cleavage is 0.03.

On to UGCAGAGCUAAACACAGCGUGGCAAAGUGGCUGUGGCUAGGCUGCC, for which the self-cleavage worked out at 0.02.

Take UGCAGAGCUCAACACAGAGUGGCAAUGUUGCUGUGGCUAGACUGCA: the self-cleavage amounted to 0.92.

With UGCAGAGUUGAAGACAGCGUGGCCAAGUGGCUGUGGCUUGACUGCC, the self-cleavage is 0.
